Results are given in words; binding and its absence hold for the method and conditions named. Some entries that bind do so weakly or less than the wild type.

Amino acid sequences for entries named in this document (tags omitted). A change or cut given only in a name is not applied to a line headed by its entry. Residues count along the entry.
UniProt Q06609: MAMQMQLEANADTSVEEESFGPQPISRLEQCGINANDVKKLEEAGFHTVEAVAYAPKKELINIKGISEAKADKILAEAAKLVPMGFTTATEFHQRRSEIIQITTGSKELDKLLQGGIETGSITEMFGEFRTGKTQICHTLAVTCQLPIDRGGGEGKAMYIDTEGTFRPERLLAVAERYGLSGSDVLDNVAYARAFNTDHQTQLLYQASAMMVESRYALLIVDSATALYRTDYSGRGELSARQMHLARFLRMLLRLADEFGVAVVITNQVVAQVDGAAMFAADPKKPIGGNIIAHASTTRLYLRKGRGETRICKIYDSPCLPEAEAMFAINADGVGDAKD
UniProt Q9NXL9: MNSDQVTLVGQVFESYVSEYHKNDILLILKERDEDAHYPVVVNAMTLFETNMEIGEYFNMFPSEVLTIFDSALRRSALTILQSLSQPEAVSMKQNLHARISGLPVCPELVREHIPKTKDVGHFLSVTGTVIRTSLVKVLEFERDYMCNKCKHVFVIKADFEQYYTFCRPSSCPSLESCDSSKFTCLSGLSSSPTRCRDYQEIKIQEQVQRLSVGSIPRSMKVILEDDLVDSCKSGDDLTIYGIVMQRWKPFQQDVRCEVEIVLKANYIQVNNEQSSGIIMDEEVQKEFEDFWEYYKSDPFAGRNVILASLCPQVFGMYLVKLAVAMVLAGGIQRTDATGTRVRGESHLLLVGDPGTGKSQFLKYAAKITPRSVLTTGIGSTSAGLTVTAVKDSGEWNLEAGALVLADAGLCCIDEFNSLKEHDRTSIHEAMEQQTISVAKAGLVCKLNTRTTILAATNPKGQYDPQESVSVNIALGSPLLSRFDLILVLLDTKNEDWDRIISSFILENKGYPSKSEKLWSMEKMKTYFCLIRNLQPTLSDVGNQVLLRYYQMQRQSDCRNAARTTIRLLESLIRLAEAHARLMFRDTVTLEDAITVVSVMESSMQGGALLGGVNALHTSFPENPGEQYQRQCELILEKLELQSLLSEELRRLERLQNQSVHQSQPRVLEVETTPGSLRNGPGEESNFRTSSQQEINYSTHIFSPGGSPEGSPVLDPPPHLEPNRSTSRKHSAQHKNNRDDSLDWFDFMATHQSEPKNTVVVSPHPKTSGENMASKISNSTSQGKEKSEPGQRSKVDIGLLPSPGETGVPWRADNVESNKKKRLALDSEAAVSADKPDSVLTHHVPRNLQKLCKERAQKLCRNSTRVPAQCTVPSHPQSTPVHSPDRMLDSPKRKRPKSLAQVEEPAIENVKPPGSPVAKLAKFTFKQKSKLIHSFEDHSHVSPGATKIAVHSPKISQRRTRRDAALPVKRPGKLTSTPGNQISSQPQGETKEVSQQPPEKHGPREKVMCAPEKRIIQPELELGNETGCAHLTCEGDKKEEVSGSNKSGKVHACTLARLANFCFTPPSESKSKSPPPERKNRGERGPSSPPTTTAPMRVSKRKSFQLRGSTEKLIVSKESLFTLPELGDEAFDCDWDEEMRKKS
MCM9 C-term (620-1143) in pGBKT7 (yeast two-hybrid fusion): residues 620-1143 of Q9NXL9
MCM9 (643-900), C-terminal extension (CTE) truncation: residues 643-900 of Q9NXL9

One assay deals with GST-tagged RAD51 (UniProt Q06609). The experiment in a line: pull-down; GST-RAD51 (4 uM) bound to glutathione agarose on ice, equal molar purified MCM9 (643-900) added for 30 min; at least seven washes with 20 mM HEPES pH 7.5, 75 mM NaCl, 0.1 mM EDTA, 1 mM BME, 10% glycerol; eluted with 10 mM reduced glutathione; SDS-PAGE, Coomassie; both purified.
For assay [1], the target named is MCM9 C-term (620-1143) in pGBKT7 (yeast two-hybrid fusion) (human) (UniProt Q9NXL9). The experiment in a line: two-hybrid; yeast strain SFY526; MCM9 constructs in pGBKT7, RAD51 in pGADT7; grown on SD/-Trp/-Leu at 30 °C, colony-lift filter beta-galactosidase (X-gal) assay.
For assay [2], the target named is full-length MCM9 (1-1143) BRCv- (F687A/R688A) in pGBKT7 (yeast two-hybrid fusion) (human) (UniProt Q9NXL9). The description is as above.
For assay [3], the target named is MCM9 C-term (620-1143) BRCv- (F687A/R688A) in pGBKT7 (yeast two-hybrid fusion) (human) (UniProt Q9NXL9). The assay is described as above.
For assay [4], the target named is full-length MCM9 (1-1143) in pGBKT7 (yeast two-hybrid fusion) (human) (UniProt Q9NXL9). Described as above.

Take “MCM9 (643-900), C-terminal extension (CTE) truncation (from UniProt Q9NXL9-1 643-900) (domain or fragment)”: in the assay with GST-tagged RAD51, the binding result is recorded as “binds”.
As to “RAD51 in pGADT7 (yeast two-hybrid fusion) (from UniProt Q06609 1-339)”, the binding result in assay [1] is recorded as “binds”; in assay [2], “no binding”; in assay [3] it was “no binding”; in assay [4], “binds”.

The record behind these values is publication PMC7949153.
